Results on 42 sequences are retold here after paper PMC7819943, “Rice protein-binding microarrays: a tool to detect cis-acting elements near promoter regions in rice”.

The other results are listed elsewhere or left out.

The target in the experiment is T1, OsWOX13 (Oryza sativa, UniProt Q5QMM3 1-267).
T1 sequence: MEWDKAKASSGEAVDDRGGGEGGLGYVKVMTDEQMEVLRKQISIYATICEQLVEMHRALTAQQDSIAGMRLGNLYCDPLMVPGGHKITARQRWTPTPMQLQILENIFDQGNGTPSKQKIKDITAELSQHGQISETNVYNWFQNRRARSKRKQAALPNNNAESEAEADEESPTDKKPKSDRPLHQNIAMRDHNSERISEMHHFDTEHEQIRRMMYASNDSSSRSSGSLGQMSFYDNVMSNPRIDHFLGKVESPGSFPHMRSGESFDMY
As to the kind of experiment: protein-binding microarray (RPBM); PBS, 2% BSA, 51.3 ng/ul salmon testes DNA, 50 uM zinc acetate, 200 nM TF, 25 C, 1 h; high values mean tight binding. As to conditions: protein: recombinant; tags: N-terminal polyhistidine and DsRed monomer fusion (pET32a); label: CyDye5-dUTP incorporated in the synthesized complementary strand; 3' TTTTT single-stranded linker to array surface; dsDNA, one strand shown. Summed up:
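Binding signal is reported as fluorescence intensity per feature (arbitrary units) from an Axon 4000B scanner. Incubation used 200 nM of each Ni–NTA-purified, N-terminally polyhistidine- and DsRed-fused transcription factor from E. coli BL21-CodonPlus on a double-stranded custom Agilent array for 1 h at 25 °C, with 50 µM zinc acetate in the buffer, followed by washing.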
For “AGCAAATTAATATGGATTACTTCCACTTGCAAAGCTGCAACGGAGTCACCTAGTGCAG”, the binding signal is 27100 fluorescence intensity (a.u.).

For the sequence “AGTGGTGATGGGCACAATGGTGATTAGAGTGGCGGAGATCCGGAGTCACCTAGTGCAG”, the binding signal was 7460 fluorescence intensity (a.u.).

For the sequence “ATGTAACTGAGATTGATGTAGTATCAGAGATACAAGAAGACGGAGTCACCTAGTGCAG”, the binding signal was 15700 fluorescence intensity (a.u.).

For the sequence “ACAAGATTGTTTCAAACATAATTTCAACCCGATGATAAAGCGGAGTCACCTAGTGCAG”, the binding signal is 12900 fluorescence intensity (a.u.).

For the sequence “CTGTAACATTCAATGATTTCCTATGGGCATTCGGCATACTCGGAGTCACCTAGTGCAG”, the binding signal was 10400 fluorescence intensity (a.u.).

For “CCAAGAGGAGTAATTTGATTGGCTAAGGCAGAGAATAGAGCGGAGTCACCTAGTGCAG”, the binding signal is 28100 fluorescence intensity (a.u.).

As for “AGGATTAGCAATATATTTATGATGTCATCAGGGCTAGTGACGGAGTCACCTAGTGCAG”, the binding signal was 4170 fluorescence intensity (a.u.).

Consider “TGAAATTAGTATTGAAAATCAATTTCGGGATTTATTTTATCGGAGTCACCTAGTGCAG”, for which the binding signal was 3260 fluorescence intensity (a.u.).

As to “ATGTGAGAAATAAATTAGCGAGCAAATTTTATGGACTTGTCGGAGTCACCTAGTGCAG”, the binding signal is 8500 fluorescence intensity (a.u.).

Consider “CCTCTTGTTAATCCCGCAAATTAGCTCTTCAAATTAGGAACGGAGTCACCTAGTGCAG”, for which the binding signal is 7800 fluorescence intensity (a.u.).

In the case of “CCGCTAACTTATCCGTTACCTCGCTCCCATCCCGCTAAACCGGAGTCACCTAGTGCAG”, the binding signal was 4280 fluorescence intensity (a.u.).

“GATTAACACGACATTAATAGGTACAAATTAAAACACTTACCGGAGTCACCTAGTGCAG”: the binding signal is 15400 fluorescence intensity (a.u.).

Take “ACACTTCAATCAACCACCCAACTCGCACCGCACCGGTTTTCGGAGTCACCTAGTGCAG”: the binding signal was 14400 fluorescence intensity (a.u.).

“TGTCTACGTTTTCCAGATGATTGGTATGAAATTAGTTGTGCGGAGTCACCTAGTGCAG”: the binding signal was 10800 fluorescence intensity (a.u.).

Take “TCTCAATAATTAATTATGCTCTCTTAAATTTTCTTGAAATCGGAGTCACCTAGTGCAG”: the binding signal is 15400 fluorescence intensity (a.u.).

For the sequence “ACTTGGTGACGAATCAATCGAAACCCAATTTATCAAATCCCGGAGTCACCTAGTGCAG”, the binding signal is 4480 fluorescence intensity (a.u.).

As for “AGTCAAATTGCACTGGTTTTAATAATTCTGAGAGTCATCCCGGAGTCACCTAGTGCAG”, the binding signal was 5390 fluorescence intensity (a.u.).

As for “TAAAATTGACGATATCTTGGGCAAAATCACTGGGCATGGCCGGAGTCACCTAGTGCAG”, the binding signal was 32200 fluorescence intensity (a.u.).

As to “ACACTAGATCTAGACTGATTTTGTGCATTATAATGTTTTGCGGAGTCACCTAGTGCAG”, the binding signal is 6580 fluorescence intensity (a.u.).

As to “TTCGTTCATCATCAATCAAAACATGGGACTATAAGGATTTCGGAGTCACCTAGTGCAG”, the binding signal is 7300 fluorescence intensity (a.u.).

For the sequence “TGTATTGCTAAATTATAGTGTAAATTTTGGTTCCTCGTCCCGGAGTCACCTAGTGCAG”, the binding signal is 6110 fluorescence intensity (a.u.).

In the case of “TTCAGTTAATTGTTCGATCGATCGATCGATCAGCTGCTGCCGGAGTCACCTAGTGCAG”, the binding signal is 17000 fluorescence intensity (a.u.).

For “TGTATTCATCATCTAAATTATTGTTCATAAACCTATAGGCCGGAGTCACCTAGTGCAG”, the binding signal was 3420 fluorescence intensity (a.u.).

For “AAATGAATAATTACTTGGGTTGATGTTGACGAGCATGCCGCGGAGTCACCTAGTGCAG”, the binding signal is 6130 fluorescence intensity (a.u.).

For “AAGCCAAATTAAACAACATGATATATCTGTGTATTGCCATCGGAGTCACCTAGTGCAG”, the binding signal is 6490 fluorescence intensity (a.u.).

For the sequence “ATTGTAATGAAGTATTGATAGGGACTCTAATCAGGCCTCCCGGAGTCACCTAGTGCAG”, the binding signal is 11000 fluorescence intensity (a.u.).

Turning to “TGCCCTTACCTGTGGTTTCTCCCGCGGCGGCGGGGTGGAGCGGAGTCACCTAGTGCAG”, the binding signal was 65500 fluorescence intensity (a.u.).

In the case of “ACAGAAATTAGATGGAGATAAAGATTTTCGTGACACGTTTCGGAGTCACCTAGTGCAG”, the binding signal was 7480 fluorescence intensity (a.u.).

As for “CATATACATACTAATTAAACCTAAATACGTAGCCTGATCACGGAGTCACCTAGTGCAG”, the binding signal was 8710 fluorescence intensity (a.u.).

Consider “AAAATAACTGACAGTGACAGTGTCACCTGTTGATTCTGACCGGAGTCACCTAGTGCAG”, for which the binding signal is 25900 fluorescence intensity (a.u.).

“ATGTAATTTATACAAGTGGGTATTCATTTAAATTGGTTATCGGAGTCACCTAGTGCAG”: the binding signal is 25300 fluorescence intensity (a.u.).

With “ACTGATAACAAAATAATTTATAGGTAAAACTTTTAATATGCGGAGTCACCTAGTGCAG”, the binding signal is 7340 fluorescence intensity (a.u.).

“CTCATAGTCATAGTTACTGATTTGTTTGCTCATAGTCATACGGAGTCACCTAGTGCAG”: the binding signal was 4510 fluorescence intensity (a.u.).

Regarding “AGAGTGGAATTGGCAATTCCCAAATCGAAACGCCGCTGCGCGGAGTCACCTAGTGCAG”, the binding signal was 8410 fluorescence intensity (a.u.).

With “CTAATACTTAATTAATCACGTGTTAAAAGGCCGCTCCATTCGGAGTCACCTAGTGCAG”, the binding signal is 18700 fluorescence intensity (a.u.).

“TCCTTGACGAGAAGGGCACCATCGTGATCAATCATCTGTCCGGAGTCACCTAGTGCAG”: the binding signal was 13900 fluorescence intensity (a.u.).

Turning to “ACACCCTCATTACTATATTATTAATTATTGTTCCTCAATGCGGAGTCACCTAGTGCAG”, the binding signal was 5020 fluorescence intensity (a.u.).

As to “GCAATGGATCATGCTATCCAATCAATTTTCATATGTTCTTCGGAGTCACCTAGTGCAG”, the binding signal is 3400 fluorescence intensity (a.u.).

Consider “CCAAATTTGATTGGCATCTCAAAACTGTCGTATAATTGGGCGGAGTCACCTAGTGCAG”, for which the binding signal was 65500 fluorescence intensity (a.u.).

As for “CCTAATTACGCCATGATTTGACAATATGATGCTACAGTAACGGAGTCACCTAGTGCAG”, the binding signal is 36900 fluorescence intensity (a.u.).

Take “AGCAAGTGATTTGTCCTCCTTACATTGTTAGTACTGTTTGCGGAGTCACCTAGTGCAG”: the binding signal was 14000 fluorescence intensity (a.u.).

“CCACAGATTGTTAGCTTAGCGTTTGGTTACTTGCTTCAGTCGGAGTCACCTAGTGCAG”: the binding signal was 4170 fluorescence intensity (a.u.).
